# Data: PubChem BioAssay AID588342 (National Center for Advancing Translational Sciences (NCATS), 2011)
# Among all 360,000 compounds or so, about 25,000 (6.9%) were called active. The shares of active, inactive and inconclusive entries below differ from those in the screen. Calls follow the shape of the dose curve; as a rule, active = well fitted inhibition curve with a large enough effect; inconclusive = small, poorly fitted or top-dose-only effect; inactive = flat fitted curve, though single readings scatter. Where the call is inconclusive, the potency comes from a doubtful curve fit.
# Target: Luciferin 4-monooxygenase (Photinus pyralis) (UniProt P08659)
# Chain of UniProt P08659 (P08659 whole entry, looked up): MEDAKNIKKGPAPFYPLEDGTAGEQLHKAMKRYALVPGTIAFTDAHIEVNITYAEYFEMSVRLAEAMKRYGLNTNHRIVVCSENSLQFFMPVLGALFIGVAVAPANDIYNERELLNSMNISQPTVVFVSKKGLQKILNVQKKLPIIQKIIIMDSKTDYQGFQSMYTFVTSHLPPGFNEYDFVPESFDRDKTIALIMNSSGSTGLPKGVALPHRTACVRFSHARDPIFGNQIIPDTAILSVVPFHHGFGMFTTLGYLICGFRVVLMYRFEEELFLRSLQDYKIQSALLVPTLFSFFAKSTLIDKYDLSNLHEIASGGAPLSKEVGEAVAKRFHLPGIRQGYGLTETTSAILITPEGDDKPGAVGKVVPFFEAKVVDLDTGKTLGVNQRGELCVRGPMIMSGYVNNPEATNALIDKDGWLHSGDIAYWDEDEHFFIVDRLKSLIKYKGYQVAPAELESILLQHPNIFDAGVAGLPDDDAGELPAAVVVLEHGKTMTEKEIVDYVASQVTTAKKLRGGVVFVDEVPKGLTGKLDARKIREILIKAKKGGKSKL
# Test: qHTS profiling assay for firefly luciferase inhibitor/activator using purifed enzyme and Km concentrations of substrates (counterscreen for miR-21 project); also: nearly all actives have a fitted effect of over 55% in size;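 as to activity change, negative = inhibition: plate controls were vehicle for no effect and reference inhibitor for full effect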
# Settings: purified FLuc, luminescence inhibition; series mostly up to 57.5 µM; activity change, negative = inhibition: at the top concentration
# Procedure, shortened: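 Purified P. pyralis luciferase (10nM final) with 10uM D-luciferin and 10uM ATP (Km levels) in 50mM Tris acetate pH 7.5, 10mM Mg acetate, 0.01% Tween-20, 0.05% BSA; qHTS 6-point titration, ~60 µM downward; luminescence read.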
# Potency is read from the fitted curve at half-maximal effect; tags tell the direction and shape of the fitted curve.
SMILES,Potency,"activity change, negative = inhibition"
C/C(=N\NC(=O)c1c(C)nc2ccccn12)c1ccco1,"inconclusive: 21.3 µM [inhibitor, single point]",–
O=C1CCCCc2sc(Br)c([N+](=O)[O-])c2N1,–,inactive: 3.89%
CCCCOc1ccc(CNC(=S)N/N=C/c2ccc(OC)c(OC)c2)cc1,"inconclusive: 10.7 µM [inhibitor, partial curve, poor fit]",–
Cc1ccc(-c2nc(-c3ccccc3)no2)c(Cl)c1,active: 0.0849 µM,–
COc1cc2c(cc1OC)C(C)N(C(=O)c1ccc(Cl)c(S(=O)(=O)N3CCCCC3)c1)CC2 (stereo not drawn),"inconclusive: 23.9 µM [inhibitor, partial curve, poor fit]",–
COc1ccc(C(CC(=O)O)NC(=O)c2cc3cc(Br)ccc3oc2=O)cc1OC (stereo not drawn),"inconclusive: 16.9 µM [inhibitor, partial curve, poor fit]",–
CCOc1ccc(CCNC(=O)COC(=O)c2cc([N+](=O)[O-])ccc2N2CCOCC2)cc1OCC,–,inactive: 4.18%
NC(=O)c1cc([N+](=O)[O-])ccc1NCc1cnccn1,–,inactive: 2.18%
C=Cc1cccc(NC(=O)COc2ccccc2)c1,"inconclusive: 26.9 µM [inhibitor, partial curve]",–
Cc1ccc(NC(=O)CCCn2c(=O)c3cccn3c3ccccc32)cc1C,–,inactive: 1.47%
CCOc1ccccc1/C=N/NC(=O)c1cc(C(C)C)[nH]n1,"inconclusive: 19 µM [inhibitor, partial curve]",–
COc1cc(/C=N/NC(=O)c2cccnc2)ccc1OC(=O)c1ccc2c(c1)OCO2,–,inactive: 4.28%
O=C(COC(=O)c1ccccc1Br)NCc1ccccc1,"inconclusive: 30.1 µM [inhibitor, single point]",–
Cc1ccc(S(=O)(=O)N(CC(=O)Nc2cccc(N(C)S(C)(=O)=O)c2)c2ccc(Cl)c(Cl)c2)cc1,–,inactive: 6.13%
Cc1nnc(SCc2ccc(Cl)cc2)nc1/C=C/N(C)C,"inconclusive: 30.1 µM [inhibitor, partial curve, poor fit]",–
O=C(CCCN1C(=O)/C(=C/c2ccccc2Cl)SC1=S)NNC(=O)c1cccnc1,active: 13.5 µM,–
COc1cccc(-c2nnc(SCC(=O)N3CCC(C)CC3)o2)c1,–,inactive: 3.58%
O=C(OCc1cc(=O)n2nc(C3CCCCC3)sc2n1)c1ccccc1Cl,"inconclusive: 6.01 µM [inhibitor, partial curve, poor fit]",–
Cc1ccc(-c2ccc(SCC(=O)N3CCCc4ccccc43)nn2)cc1,active: 8.49 µM,–
CCCOc1ccc(/C=N/Nc2ccccn2)cc1OC,active: 3.38 µM,–
O=C(CSc1nc2ccccc2c(=O)n1NC(=O)c1ccccc1)c1ccccc1,active: 12 µM,–
COc1ccc(C(=S)N2CCOCC2)cc1OS(=O)(=O)c1ccc(Br)cc1,–,inactive: 0.0999%
CCOc1cc(CNCCSc2nnnn2C)ccc1OCc1ccc(Cl)cc1Cl,–,inactive: -10.8%
COc1ccc2c(C)cc(SCC(=O)c3ccc4c(c3)OCO4)nc2c1,"inconclusive: 12 µM [inhibitor, partial curve, poor fit]",–

SMILES,Potency,"activity change, negative = inhibition"
CCOC(=O)c1ccc(NC(=O)c2ccc3c(c2)OCO3)cc1,"inconclusive: 6.75 µM [inhibitor, full curve]",–
CCC(C)(C)NC(=O)C(Sc1ccccc1)c1ccccc1 (stereo not drawn),–,inactive: 1.41%
COc1cccc(C(=O)Nc2nc3c(s2)CCCC3)c1,active: 1.9 µM,–
CCCCC(=O)Nc1cccc(NC(=O)c2ccc(Br)cc2)c1,–,inactive: -0.653%
CCOC(=O)N1CCN(C(=O)CSc2nnc(-c3ccc(C)c(C)c3)o2)CC1,"inconclusive: 19 µM [inhibitor, partial curve]",–
COc1ccc(-n2c(=O)c3ccc(C(=O)NCc4ccc(C)cc4)cc3n(CC(=O)Nc3cccc(F)c3)c2=O)cc1,–,inactive: -1.99%
Cc1ccc(CNC(=O)c2cc3cc(C)ccc3n2C)cc1,–,inactive: -4.91%
CNc1ccc(-c2nc(-c3ccccn3)no2)cc1[N+](=O)[O-],"inconclusive: 15.1 µM [inhibitor, partial curve]",–
Cc1cc(O)ccc1Nc1nc(-c2sc(N)nc2C)cs1,"inconclusive: 21.3 µM [inhibitor, partial curve, poor fit]",–
COc1ccccc1NC(=O)c1cc(-c2cc(OC)c(OC)c(OC)c2)nc2ccccc12,–,inactive: -1.56%
Cc1ccc(-c2nnc(N)s2)cc1,active: 13.5 µM,–
CC1CCc2c(sc(NC(=O)/C=C/c3cccs3)c2C(=O)O)C1 (stereo not drawn),"inconclusive: 37.9 µM [inhibitor, partial curve, poor fit]",–
CCOC(=O)C1CCN(Cc2nnnn2CCc2ccccc2)CC1,"inconclusive: 26.9 µM [inhibitor, partial curve]",–
O=C(Nc1cccc(CCc2ccccn2)c1)c1ccc(Cl)cc1,"inconclusive: 30.1 µM [inhibitor, single point]",–
Cc1ccccc1NC(=O)c1cc2ccccn2n1,active: 3.38 µM,–
N/C(=N\OC(=O)CCc1ccccc1)c1cccnc1,"inconclusive: 30.1 µM [inhibitor, partial curve, poor fit]",–
Cc1cc(C)cc(Nc2ncc3c(n2)CCCC3=O)c1,active: 3.38 µM,–
C=CCn1cc(/C=N/NC(=O)COc2cccc3cccnc23)c2ccccc21,"inconclusive: 12 µM [inhibitor, partial curve]",–
Cc1oc2cc3oc(=O)c(CC(=O)NCCCC(=O)O)c(C)c3cc2c1C,"inconclusive: 37.9 µM [inhibitor, partial curve, poor fit]",–
CNC(=O)COC(=O)C1CCN(S(=O)(=O)c2ccc3c(c2)OCCO3)CC1,–,inactive: 2.36%
COc1cc(OC)c(NC(=O)CCc2nc(-c3cccs3)no2)cc1Cl,"inconclusive: 37.9 µM [inhibitor, partial curve, poor fit]",–
Cc1ccc(Oc2ccc(OCC(=O)NC3CCS(=O)(=O)C3)cc2)cc1 (stereo not drawn),–,inactive: -6.53%
Cc1ccc(C(=O)N/N=C(\CC(C)C)c2ccccc2)cc1,"inconclusive: 37.9 µM [inhibitor, single point]",–
COC(=O)c1ccc(NC(=O)Nc2ccc3c(c2)nc(C)n3C)cc1,"inconclusive: 37.9 µM [inhibitor, single point]",–
